Test results from the supplement of paper PMC11417369.
Some of the results follow.

system: PfSIP2 AP2 domain 1 (GST-tagged); experiment: gcPBM binding intensity (ln(normalized median fluorescence intensity)); higher = stronger DNA binding
Outline: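 Using an Agilent 4 × 180k array, primer-extended double-stranded 36-bp intergenic genomic probes and negative controls were exposed for 1 h to GST-fused P. falciparum DNA-binding domains expressed in E. coli. Binding was carried out in 1× PBS with 1% milk, 0.2 mg/ml BSA, 0.5% salmon testes DNA and 0.03% Triton X-100, and protein was detected with Alexa488 anti-GST antibody and a 488 nm scan. Binding intensity is the highest Masliner-normalised natural-log median intensity across replicate spots of either probe orientation.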

Row | Sequence | gcPBM binding intensity (ln)
1 | AACAAGGTATTAGGGTGTACTATATATATTTATATT [XGTACX_site7776] | 7.02
2 | TAATAAAGTATTTTGCGTACTTATTTTATTCTTCTA [XGTACX_site2095] | 6.67
3 | ATTGTGTGAACAAAATGTACATTTTCTCTACATTAA [XGTACX_site1333] | 6.88
4 | TGGCATATATATAAATGTACTTTCTTTCTATCTGTT [XGTACX_site8483] | 6.75
5 | TTATATATATGTAATTGTACTTTTAATTTTTTTTTA [XGTACX_site4357] | 6.76
6 | TATTTTATAATAGGCACACATATAAAAATATATATA [CACACA_site4127] | 7.23
7 | TAATTTTTTTTAAATACACACTGAAATGTGAATTTT [CACACA_site4476] | 6.57
8 | ATAAAAATAAAAGACGCATGTTCTTAAAATAAGAAC [TGCATGCA_site189] | 6.78
9 | ATATATATATATAATGCACACATTATGAATTATGTA [CACACA_site3384] | 9.09
10 | AAACAAAATGGTAACACACACATATATATATATATA [CACACA_site1939] | 9.36
11 | GTGTGATCTTTTGAAAGTACATTTTTTTTTTTTTTT [XGTACX_site6311] | 7.28
12 | AGGTCATACATAAAATGTACATATATATAAATATAT [XGTACX_site7147] | 6.97
13 | TGAACACCCAAATACACACACTCAAAAAAAAAAAAG [CACACA_site5467] | 7.02
14 | ACAAGAATACACCACGCACACACACTAGAGAAAAAA [CACACA_site9276] | 7.42
15 | ATTTCATTAAAGATTACATGCAATTCTATATTATTT [TGCATGCA_site260] | 6.87
16 | AATTGCTCGATATATGCACACAGTTTTGTTATTTTT [CACACA_site8465] | 7.47
17 | AACATAAATTACTTTTTACACACTAATATAAAATAC [CACACA_site8297] | 7.12
18 | AAAACACGCGGACACACACACACACGCCCACATATA [CACACA_site7105] | 7.29
19 | ACTTTCAAGGATGTACGTACATATGTATTTTATAAC [XGTACX_site6714] | 7.59
20 | TTTTTTATGATTAACACACACACAAAAAAAAAAAAA [CACACA_site4130] | 7.01
21 | TCATGTAACCATTCATGTACTCAAAAAAAAAAAAAA [XGTACX_site1027] | 7.12
22 | AAAAAAAAAACAAATACACACGCACCCAAAAAAAAA [CACACA_site8166] | 10.1
23 | AAATGAAAGAACAGCACACATATATATTATATATAA [CACACA_site2002] | 6.85

Row | Sequence | gcPBM binding intensity (ln)
24 | TTTTATATATATATATATATATATATATATGTATAT [CACACA_negctrl_site173] | 8.24
25 | AACATATTTTTTCTTAAACACACACCGATATATATA [CACACA_site8919] | 7.38
26 | AATATATATTTCTAAGATAAAACCCAAGGATAAAAA [CACACA_negctrl_site735] | 6.95
27 | TCTGTAAATATGTATACACACATATCTGATCAATAT [CACACA_site5743] | 7.03
28 | TTATGGATAAATAAATGTACGTTAAGATAACACAAA [XGTACX_site4208] | 6.89
29 | ATATACATATGTGTGTGTACTTATATCACATTTTTG [XGTACX_site3785] | 7.25
30 | TCGACAAAGGCATATACACACATTTGTAACATAAAT [CACACA_site4471] | 6.78
31 | GTTTTTTTGTTTTAGTGTACCTAAAACTGCATGTAG [XGTACX_site294] | 7.38
32 | ATTTCTCTATAGTAATGTACAAAAAAAAGGAAAAAG [XGTACX_site2757] | 7.13
33 | ACATAAAATAAATATACACACATATGTATTTATTAT [CACACA_site5648] | 6.91
34 | AAACCGAATTTACATGAATGTAAATTATGTTGTTTT [CACACA_negctrl_site1834] | 6.73
35 | CAAGAATAAAAATACAAGCACACATGTATGAAATAT [CACACA_site3214] | 6.98
36 | TATTTAATTACATGAACACACATTATGTATTTTTAA [CACACA_site2962] | 6.92
37 | TAAAAAAAAAAAACAAGTACATATATAAATATATAT [XGTACX_site7537] | 6.81
38 | TTTTTATTTAATAATATATTAATCATATAAATAAAT [GTGCAC_negctrl_site210] | 6.72
39 | TTTATATAAAAAAATTGTACATATTTATTATAAACA [XGTACX_site2124] | 6.98
40 | TGTATGCATATTTGATGTACGCACATATACTAATTT [XGTACX_site3159] | 7.26
41 | TATATTCTTATTATTGCATGCTGCACGAAGATTTTC [TGCATGCA_site831] | 7.63
42 | ATAATAAATAAAATAACACACATATATAGATATATA [CACACA_site6224] | 7
43 | GTATGTTTGTTATGCACACAAATGCATCTTATTTCC [CACACA_site2690] | 8.48
44 | TTTAATTATAAGATAACACACAAAAAAAATAAAATA [CACACA_site254] | 7.25
45 | AAAAAAAAAAAAAGCACACACACATATGAGTATATA [CACACA_site4682] | 7.17
46 | GTGCCTTTAAAAAAAAGTACAAAAAAGAACGAATTA [XGTACX_site3714] | 7.34

Row | Sequence | gcPBM binding intensity (ln)
47 | AATTTCAAATTGTATGTGCACATGTAGAAGTACTTT | 8.76
48 | TATATATATATATATTGTACATTTTTTTTTTTTTTT [XGTACX_site7891] | 9.62
49 | TTTTCATTAAATATATATGCATACCATATGTACATT [GTGCAC_negctrl_site539] | 7.09
50 | TATGTAAAGAGTAAGGGTACATGTATAATACGGCTC [XGTACX_site1283] | 7.18
51 | AAATACTATATCAAGCGTACTTATTTCATGGTAATA [XGTACX_site7878] | 6.83
52 | TTTAAAATATTTTCTTGTACGAAGGAACATTTCTTA [XGTACX_site4013] | 6.79
53 | TTTATATATATATATATATATAATAAATGATACACA [TGCATGCA_negctrl_site392] | 7.4
54 | TATTTTTTTTCTTATACACACCATGCATCAAACTAA [CACACA_site5208] | 7.46
55 | TCAAAAATATTCTGGAGTACCTTTTTAAAGGTATAG [XGTACX_site6893] | 6.88
56 | TTTGCACCGTTTAAGTGTACAGAATTATGACATATA [XGTACX_site6735] | 11.2
57 | TGTGGTTACATGTGCACACACTTATTTCGTTCTTAT [CACACA_site4907] | 8.54
58 | TAAATATATATATACACACACATACACAAAAAAAAA [CACACA_site3580] | 7.25
59 | ATTGCATATAATGGCACACATAAATCCATAATATAT [CACACA_site297] | 7.02
60 | TAATCGAAACAAAGAACATGCAAACATATACCTATA [TGCATGCA_site894] | 6.72
61 | CAAAATTTATGTAAAAGTACAAAAATATAGAAAGAT [XGTACX_site1122] | 7.31
62 | TGTGTTCATCTATGCACACGCATATATATTATTGTT [CACACA_site5985] | 7.01
63 | TTTTATTCCTTCTTTGCACACGTTTAAAAATATATA [CACACA_site2899] | 8.04
64 | AATATAATATAAGGATCACACACAAACACCCATATA [CACACA_site8084] | 7.11
65 | TAAGTTATATGTATATGTACTTATATATATATATAT [XGTACX_site5402] | 9.57
66 | ATTAAAAAAATTAAAAGTACACATATTTCAATGATA [XGTACX_site5606] | 6.84
67 | TAAAAAAAAAAAAAAACACACATATAAATATATATA [CACACA_site1243] | 7.19
68 | AAAATTAAAAAGAACACACAAATATATCTATAATAA [CACACA_site7660] | 6.9
69 | TTAATAAATAAAAATGCACACAGTTAACATGTTGAA [CACACA_site1200] | 7.49

Row | Sequence | gcPBM binding intensity (ln)
70 | GCACATAAATATATGACACACACACCGATTATATAT [CACACA_site9003] | 7.07
71 | AAAAAAAAAAAAAAAACACACAAACATCAAATTATT [CACACA_site5083] | 7.73
72 | ATAATAATTTAATACATACACACGTATATCTTTTTT [CACACA_site2041] | 7.05
73 | ATACAAAAAGTAAAAAGTACTTAACTAAATATATAA [XGTACX_site2335] | 6.96
74 | TTTTCAATATATTAATGTACGAATACGCAAATAAGA [XGTACX_site1613] | 7.23
75 | TTTTTTTTTTTTTTTGCACACACATAATAGGTACAA [CACACA_site3578] | 7.5
76 | GCAGGATTGGTTCAAACACACATATTATATGACTAT [CACACA_site660] | 7.01
77 | ATCTTATATGATCACACACACACGCACAAAACAGAA [CACACA_site4913] | 7.56
78 | AAAAAAAAAAAATGCACACATATATTTCCATATACA [CACACA_site1471] | 7.54
79 | TTTAAAATACAGAAGGTGCATTTAACATATTTGTAT | 10.6
80 | TATATATATAAACACACACACATATATATATATATA [CACACA_site4584] | 9.48
81 | ATATATATATATATATGTACTAATTAATATTTCGAG [XGTACX_site580] | 9.58
82 | ACAAAATTTACAAAATGTACAAAATTTACAAAGTAT [XGTACX_site6463] | 6.8
83 | GTATATCATATTTCATGTACACAAAAAAATAAAAAT [XGTACX_site704] | 7.3
84 | TATATATATTATATATGTACATATTATATATATATA [XGTACX_site7300] | 8.97
85 | ATATATTTGATAAGAGTGCACAAATACATACATACA [GTGCAC_site9704] | 10.6
86 | ATAATACTACCTACATGTACTTATATATAAATGAAT [XGTACX_site3417] | 7.39
87 | GTTTTAACAAAATTAGTGCATTTATCAATTATATAA | 8.58
88 | TTTTTTTTTTCAATGGCACACATTTTAGATTTATGC [CACACA_site1074] | 6.87
89 | ACATCAAGCGGACACACACACACACCGACAGACACA [CACACA_site4361] | 7.39
